# Out of some 310,000 compounds screened, about 2,200 (0.71%) showed an effect of 50% or more. Effects have a minus sign here. The list shows a part of the results.
# Molecular target: human ether-à-go-go-related gene (hERG) potassium channel (human, UniProt Q12809)
# Test: primary screen, population patch clamp on CHO cells stably expressing hERG
# Chain of human ether-à-go-go-related gene (hERG) potassium channel (Q12809 whole entry, looked up): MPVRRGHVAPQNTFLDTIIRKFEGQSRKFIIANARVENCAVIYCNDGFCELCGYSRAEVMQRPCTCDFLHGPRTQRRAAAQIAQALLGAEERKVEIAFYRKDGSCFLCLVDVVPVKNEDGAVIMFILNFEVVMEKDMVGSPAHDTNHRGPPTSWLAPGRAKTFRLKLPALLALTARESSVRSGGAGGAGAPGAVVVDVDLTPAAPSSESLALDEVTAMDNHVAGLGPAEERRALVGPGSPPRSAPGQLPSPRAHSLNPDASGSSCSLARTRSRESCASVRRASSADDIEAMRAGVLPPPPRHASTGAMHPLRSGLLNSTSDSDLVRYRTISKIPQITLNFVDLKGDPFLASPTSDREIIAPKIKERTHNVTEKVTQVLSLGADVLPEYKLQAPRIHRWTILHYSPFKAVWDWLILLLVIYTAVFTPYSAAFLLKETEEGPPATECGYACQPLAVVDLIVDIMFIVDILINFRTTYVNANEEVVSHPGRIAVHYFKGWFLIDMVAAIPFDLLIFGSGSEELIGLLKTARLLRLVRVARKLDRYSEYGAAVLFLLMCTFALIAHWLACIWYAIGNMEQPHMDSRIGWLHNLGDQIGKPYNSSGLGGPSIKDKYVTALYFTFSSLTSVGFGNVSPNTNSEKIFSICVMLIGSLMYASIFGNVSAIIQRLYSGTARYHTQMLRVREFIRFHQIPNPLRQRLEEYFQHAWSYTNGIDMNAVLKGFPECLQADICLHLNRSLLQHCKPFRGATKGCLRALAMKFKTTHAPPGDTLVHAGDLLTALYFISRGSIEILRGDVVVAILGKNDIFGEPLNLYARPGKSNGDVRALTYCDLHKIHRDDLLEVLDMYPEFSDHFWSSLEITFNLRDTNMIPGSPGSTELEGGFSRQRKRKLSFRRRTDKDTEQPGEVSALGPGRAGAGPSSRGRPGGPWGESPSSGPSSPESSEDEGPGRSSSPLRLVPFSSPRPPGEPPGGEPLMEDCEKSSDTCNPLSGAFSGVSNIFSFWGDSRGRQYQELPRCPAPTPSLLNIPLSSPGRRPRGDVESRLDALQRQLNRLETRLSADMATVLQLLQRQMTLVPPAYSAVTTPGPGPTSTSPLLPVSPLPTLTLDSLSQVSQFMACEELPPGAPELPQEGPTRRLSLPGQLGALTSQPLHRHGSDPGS
row,Structure (SMILES),"hERG current change (%, negative = inhibition) at 1uM"
1,CCN(CC)C(=O)CC(c1cc(OC)c(OC)c(OC)c1)c1c(O)cc(OC)cc1OC (centres unmarked),8.36%
2,Cc1ccc(NC(=O)CSc2nnc(N)s2)cc1S(=O)(=O)N1CCOCC1,17.3%
3,CNC(=S)NNC(=O)c1oc2nc(-c3ccccc3)cc(-c3ccco3)c2c1N,13.4%
4,O=C(O)c1cc(N2C(=O)C3CCCCC3C2=O)ccc1NCc1cccnc1 (centres unmarked),24.6%
5,O=C(c1cn(-c2ccccc2)nc1-c1cccs1)N1CCOCC1,4.92%
6,COc1cc(NC(=O)CNC(=O)Cn2ccc3ccccc3c2=O)cc(OC)c1OC,15.1%
7,Cc1cc(C)c([N+](=O)[O-])cc1-c1ccc(/C=N/NC(=O)c2nonc2N)o1,-3.28%
8,CCCCNC1=CC(=O)C(=O)c2ccccc21,6.58%
9,CCc1ccc(NC(=S)N(Cc2cccnc2)Cc2ccco2)cc1,4.58%
10,CCCCn1c(Cc2ccccc2)nnc1SCC(=O)Nc1cc(C)on1,9.89%
11,O=C(Nc1ccc(F)c(F)c1)c1cccnc1,0.273%
12,O=C(NCc1cccnc1)c1c(O)c2cccc3c2n(c1=O)CCC3,-9.52%
13,C=CCOc1ccc(/C=C2\SC(N)=NC2=O)cc1OC,9.73%
14,CCOC(=O)c1c(NC(=O)Cn2nc(C(=O)O)c3ccccc3c2=O)sc(CC)c1C,11.9%
15,CC(C(=O)O)n1nc2ccccc2n1 (centres unmarked),17.9%
16,CCN(CC(=O)Nc1c(F)cccc1F)C(=O)C1CC1,2.88%
17,O=C1CC(N2CCC(c3nc4ccccc4o3)CC2)C(=O)N1c1ccc(F)cc1 (centres unmarked),1.75%
18,CCOC(=O)C1CCCN(C(=O)c2ccccc2[N+](=O)[O-])C1 (centres unmarked),8.22%
19,COc1ccc(N2C(=O)CC(NCc3cccs3)C2=O)cc1 (centres unmarked),7.13%
20,CCN(CC)C(=O)CN(c1cccc(C(F)(F)F)c1)S(C)(=O)=O,7.31%
21,O=C1CCC(=O)N1c1ccc(S(=O)(=O)Nc2cccc(Br)c2)cc1,14.2%
22,Nn1c(Cc2ccccc2F)n[nH]c1=S,20.4%
23,CCOC(=O)/C(C#N)=C1\SS/C(=C(/C#N)C(=O)OCC)S1,9.55%
24,Fc1ccc(CSc2nsc(SCc3ccc(F)cc3)n2)cc1,8.76%

row,Structure (SMILES),"hERG current change (%, negative = inhibition) at 1uM"
1,COc1cc2c(cc1OC)CN(C(=O)C1(c3ccccc3)CC1)CC2,7.07%
2,COc1ccc(Cl)cc1N(CC(=O)Nc1ccccc1SC)S(C)(=O)=O,-7.22%
3,Cc1ccc(/C=N/NC(=O)c2c(-c3ccccc3)noc2C)c(O)c1,1.87%
4,O=C(COC(=O)/C=C/c1cccc(F)c1)NC1CCCC1,3.56%
5,CCOc1cc2[nH]c(=S)n(Cc3ccc(C(=O)NCCOC)cc3)c(=O)c2cc1OCC,7.68%
6,COc1ccc(C(=O)NC(C)CCc2ccccc2)cc1[N+](=O)[O-] (centres unmarked),2.07%
7,Cc1cc2c(C)c(C)c(=O)[nH]c2cc1N,12.2%
8,O=C(c1cccs1)N1CCN(S(=O)(=O)c2ccc(F)cc2)CC1,1.13%
9,O=C(Nc1ccc2oc(-c3ccncc3)nc2c1)c1ccccc1,10%
10,C/C(=N/NS(=O)(=O)c1ccc(C)c(C)c1)c1c[nH]c2ccccc12,21.7%
11,O=C(COC(=O)c1cc(=O)[nH]c2ccccc12)c1cccs1,15.1%
12,CCc1nnc(N/N=C/c2ccc(-c3ccc([N+](=O)[O-])cc3)o2)n1N,14.5%
13,CCOC(=O)C1(Cc2cccc(Cl)c2)CCCN(C(=O)CCNC(C)=O)C1 (centres unmarked),15.5%
14,O=C(COC(=O)c1cc2ccccc2oc1=O)Nc1cccc(Br)c1,20.4%
15,CCOc1c2ccoc2nc2c(OC)c(OC)ccc12,3.61%
16,Cc1ccccc1NC(=S)NCCc1ccccc1,7.94%
17,CCOC(=O)c1sc(=S)n(C)c1N,0.652%
18,Cc1nnc(Nc2ccc(Cl)cc2)s1,11.2%
19,COc1ccc2[nH]c(C)c(C(=O)CN3CCOCC3)c2c1,10.4%
20,Cn1cc(S(=O)(=O)N2CCN(Cc3ccccc3)CC2)c(=O)n(C)c1=O,-1.48%
21,O=C(NCCc1ccncc1)Nc1ccc(Cl)c(Cl)c1,-9.28%
22,N#Cc1c(NCc2ccccc2)ccnc1Cl,4.74%
23,CCCc1cc(=O)[nH]c(SCC(=O)c2c(N)n(CC(C)C)c(=O)n(C)c2=O)n1,0.555%
